Laboratory results from the antibiotic and cytotoxicity screens of Wong et al. (2023).
Some of the results follow.

What was measured:
HSkMC = human skeletal muscle cells; assay: cytotoxicity call (relative viability < 0.9); details: 10 µM
HepG2 = assay: cytotoxicity call (relative viability < 0.9); details: 10 µM
S. aureus RN4220 = assay: growth inhibition call (relative growth <= 0.2); details: 50 µM

SMILES | cytotoxicity call (HSkMC) | cytotoxicity call (HepG2) | growth inhibition call (S. aureus RN4220)
COc1ccc(NC(=O)Nc2ccc3c(c2)C(=O)N([C@@H](C)CO)C[C@@H](C)[C@H](CN(C)C(=O)c2ccccc2)OCCCC[C@H](C)O3)cc1 | inactive | inactive | inactive
COc1ccc(NC(=O)Nc2ccc3c(c2)C(=O)N([C@H](C)CO)C[C@H](C)[C@@H](CN(C)C(=O)Nc2ccc(F)cc2)OCCCC[C@H](C)O3)cc1 | inactive | inactive | inactive
NC(CSCSCC(N)C(=O)O)C(=O)O (stereo not drawn) | inactive | inactive | inactive
COCCNC(=O)[C@@H]1[C@@H](CO)[C@@H]2Cn3c(ccc(-c4ccccc4F)c3=O)[C@H]1N2S(C)(=O)=O | inactive | inactive | inactive
C[C@H]1CN([C@@H](C)CO)C(=O)c2cc(NC(=O)c3ccncc3)ccc2O[C@H]1CN(C)S(=O)(=O)c1ccccc1 | inactive | inactive | inactive
C[C@@H]1CCCCO[C@@H](CN(C)C(=O)Nc2ccc(F)cc2)[C@@H](C)CN([C@H](C)CO)C(=O)c2cc(NC(=O)CCCN(C)C)ccc2O1 | inactive | inactive | inactive
COc1ccc(NC(=O)Nc2ccc3c(c2)C(=O)N([C@H](C)CO)C[C@H](C)[C@H](CN(C)Cc2ccc(Oc4ccccc4)cc2)O3)cc1 | active | inactive | inactive
CCNC(=O)C[C@H]1CC[C@H](NC(=O)C2CCOCC2)[C@@H](CO)O1 | inactive | inactive | inactive
Cc1noc(C)c1NC(=O)Nc1ccc2c(c1)C(=O)N([C@@H](C)CO)C[C@H](C)[C@H](CN(C)C(=O)Nc1ccccc1)OCCCC[C@H](C)O2 | inactive | inactive | inactive
CC[C@@H](N)c1ncnn1CC | inactive | inactive | inactive
C[C@H](CO)N1C[C@H](C)[C@H](CN(C)Cc2ccc(Cl)c(Cl)c2)OCCCC[C@H](C)Oc2ccc(NS(=O)(=O)c3ccc(F)cc3)cc2C1=O | active | inactive | inactive
C[C@H](CO)N1C[C@H](C)[C@H](CN(C)Cc2ccc(C(=O)Nc3ccccc3N)cc2)Oc2c(NC(=O)c3nc4ccccc4s3)cccc2C1=O | inactive | inactive | inactive
CCOC(=O)[C@H]1CCCN([C@H]2CS(=O)(=O)C[C@@H]2S(=O)(=O)c2ccccc2)C1 | inactive | inactive | inactive
CCNC(=O)[C@@H]1CCCN1C(=O)[C@H](CCCNC(=N)N)NC(=O)[C@H](CC(C)C)NC(=O)[C@@H](COC(C)(C)C)NC(=O)[C@H](Cc1ccc(O)cc1)NC(=O)[C@H](CO)NC(=O)[C@H](Cc1c[nH]c2ccccc12)NC(=O)[C@H](Cc1cnc[nH]1)NC(=O)[C@H]1CCC(=O)N1 | inactive | inactive | inactive
C[C@H](CO)N1C[C@H](C)[C@@H](CN(C)S(=O)(=O)c2cn(C)cn2)Oc2c(NS(C)(=O)=O)cccc2C1=O | inactive | inactive | inactive
COCC#Cc1ccc2c(c1)O[C@H](CN(C)C(=O)C1CCCCC1)[C@H](C)CN([C@H](C)CO)S2(=O)=O | inactive | inactive | inactive
